{
  "source": "PubChem BioAssay AID1347165",
  "about": "(National Center for Advancing Translational Sciences (NCATS), 2019)",
  "note": "Values joined by “and” are separate entries in the source; they are usually repeats but may differ in a detail not shown here. Equal entries are not always repeated. Screen size: about 220,000 compounds; about 5,700 (2.6%) were called active. Inconclusive means that the source gave no clear call. Such entries were picked first, then a sample of the others. Calls come from the whole dose curve; as a rule, active = well fitted inhibition curve with a large enough effect; inconclusive = small, poorly fitted or top-dose-only effect; inactive = no such curve, though single readings can be large or run the other way. Potencies of inconclusive entries are doubtful fits and often do not repeat. Potency is the fitted concentration of half-maximal effect; tags give direction and shape of the fitted curve.",
  "data": [
    {"molecular_target": "Lysine-specific demethylase 5B (Homo sapiens) (UniProt Q9UGL1)", "sequence (Q9UGL1 whole entry, looked up)": "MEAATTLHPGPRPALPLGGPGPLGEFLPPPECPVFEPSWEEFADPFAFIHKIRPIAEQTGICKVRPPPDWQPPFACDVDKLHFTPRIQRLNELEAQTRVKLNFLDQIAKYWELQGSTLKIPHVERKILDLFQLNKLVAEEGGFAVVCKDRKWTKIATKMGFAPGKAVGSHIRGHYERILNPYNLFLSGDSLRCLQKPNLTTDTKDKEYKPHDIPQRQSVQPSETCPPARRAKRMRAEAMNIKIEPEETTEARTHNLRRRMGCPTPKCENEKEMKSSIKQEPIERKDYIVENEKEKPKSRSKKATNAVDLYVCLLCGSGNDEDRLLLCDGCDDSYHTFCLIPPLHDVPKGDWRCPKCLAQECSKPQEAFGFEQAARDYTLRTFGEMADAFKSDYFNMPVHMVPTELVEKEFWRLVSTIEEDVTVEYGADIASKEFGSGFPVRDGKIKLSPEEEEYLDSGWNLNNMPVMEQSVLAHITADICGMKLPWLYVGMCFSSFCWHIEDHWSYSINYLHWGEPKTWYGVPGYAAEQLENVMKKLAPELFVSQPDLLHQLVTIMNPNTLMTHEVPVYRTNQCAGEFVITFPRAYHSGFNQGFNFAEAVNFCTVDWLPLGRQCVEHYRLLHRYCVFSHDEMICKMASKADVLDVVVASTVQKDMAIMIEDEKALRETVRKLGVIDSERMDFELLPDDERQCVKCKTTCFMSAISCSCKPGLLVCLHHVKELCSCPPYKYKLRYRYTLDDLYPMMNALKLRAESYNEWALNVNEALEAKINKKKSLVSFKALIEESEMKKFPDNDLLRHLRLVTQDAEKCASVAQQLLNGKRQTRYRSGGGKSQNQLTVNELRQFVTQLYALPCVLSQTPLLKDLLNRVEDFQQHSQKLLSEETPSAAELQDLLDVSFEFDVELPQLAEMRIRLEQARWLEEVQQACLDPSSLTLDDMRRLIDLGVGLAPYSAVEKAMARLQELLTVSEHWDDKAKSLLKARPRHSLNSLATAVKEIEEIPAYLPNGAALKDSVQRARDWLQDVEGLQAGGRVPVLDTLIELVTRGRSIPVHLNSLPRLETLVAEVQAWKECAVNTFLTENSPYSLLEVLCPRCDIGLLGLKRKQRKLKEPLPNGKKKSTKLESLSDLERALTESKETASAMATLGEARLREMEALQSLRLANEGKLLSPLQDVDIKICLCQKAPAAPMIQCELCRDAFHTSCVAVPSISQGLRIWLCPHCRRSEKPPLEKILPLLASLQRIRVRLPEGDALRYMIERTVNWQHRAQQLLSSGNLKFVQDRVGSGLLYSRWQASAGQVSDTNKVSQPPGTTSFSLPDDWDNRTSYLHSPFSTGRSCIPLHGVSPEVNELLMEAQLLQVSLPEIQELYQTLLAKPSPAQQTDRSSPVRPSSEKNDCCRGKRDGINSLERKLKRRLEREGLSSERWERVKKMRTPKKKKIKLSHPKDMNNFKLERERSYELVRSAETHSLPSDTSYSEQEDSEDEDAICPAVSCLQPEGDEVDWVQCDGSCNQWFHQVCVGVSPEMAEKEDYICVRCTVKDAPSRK", "assay": "Primary screen for KDM5B Histone Demethylases FDH-coupled qHTS; note: nearly all actives have a fitted effect of over 70% in size; for activity change, negative = inhibition: 0% is about no effect", "details": "FDH-coupled NADH fluorescence (FDH is formaldehyde dehydrogenase); activity change, negative = inhibition: at 57.7 µM (top of the series) unless noted", "outline": "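KDM5BΔAP (200 nM final) in 50 mM HEPES pH 7.5, 0.01% Tween-20 was preincubated 10 min at RT with compound over a concentration range. Substrate mix (H3K4me3 12.5 µM, α-KG 25 µM, Fe²⁺, ascorbate, NAD⁺, FDH) was added, and NADH fluorescence change over 30 min gave dose-response curves.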", "values": [
      {"smiles": "COc1ccc(CN2CCN(Cc3cccc(OC)c3OC)CC2)cc1", "Potency": "inconclusive: 12.6 µM [inhibitor, partial curve, poor fit]"},
      {"smiles": "COc1ccc(CN2C(=O)CO[C@H]3CN(S(=O)(=O)c4ccccc4)C[C@H]32)cc1", "activity change, negative = inhibition": "inactive: -11.7% [at 86.2 µM]"},
      {"smiles": "Cc1cccc(CN2CCC(CNC(=O)c3cnc(N4CCOCC4)c4ccccc34)CC2)c1", "activity change, negative = inhibition": "inactive: 4.99%"},
      {"smiles": "Clc1ccccc1C1(c2ccnc(NCCc3cccnc3)n2)CCNCC1", "Potency": "inconclusive: 25.1 µM [inhibitor, partial curve, poor fit]"},
      {"smiles": "COC(=O)c1ccc(CNC(=O)c2nccnc2N)cc1", "activity change, negative = inhibition": "inactive: 2670%"},
      {"smiles": "C=C(C)CNC(=O)CC1COc2ccc(C(=O)NCCOC)cc2N1C", "note": "(stereo not drawn)", "Potency": "inconclusive: 31.6 µM [inhibitor, partial curve, poor fit]"},
      {"smiles": "COc1cccc(C(=O)N2C(C(=O)NCc3ccccc3)COC23CCN(C(=O)CC(C)C)CC3)c1", "note": "(stereo not drawn)", "Potency": "inconclusive: 8.91 µM [inhibitor, partial curve]"},
      {"smiles": "COc1ccc(-c2cnc(N)nc2-c2ccc(OCc3ccccc3)cc2O)cc1", "Potency": "inactive"},
      {"smiles": "COc1ccc(N2CCN(CC(O)COc3c(OC)cccc3OC)CC2)cc1", "note": "(stereo not drawn)", "Potency": "inconclusive: 35.5 µM [inhibitor, single point] and inconclusive: 17.8 µM [inhibitor, single point]"},
      {"smiles": "COc1cc(OC)c(C2C3=C(CC(C)(C)CC3=O)Nc3ccccc3N2C(C)=O)cc1OC", "note": "(stereo not drawn)", "activity change, negative = inhibition": "inactive: -14.7%"},
      {"smiles": "CC(C)Cn1c(N)c(-c2csc(NC(C)C)n2)c(=O)n(C)c1=O", "Potency": "inconclusive: 17.8 µM [inhibitor, single point]"},
      {"smiles": "CCCCc1nn2c(=O)cc(COC(=O)CNC(=O)COc3ccc(C)cc3)nc2s1", "Potency": "inconclusive: 35.5 µM [inhibitor, single point]"},
      {"smiles": "O=C1CCCC2=C1C(c1ccc(Br)cc1)n1nnnc1N2", "note": "(stereo not drawn)", "activity change, negative = inhibition": "inactive: -21.9%"},
      {"smiles": "O=C(CCc1cccnc1)NCc1ccccn1", "activity change, negative = inhibition": "inactive: -3.89%"},
      {"smiles": "CC(C(=O)NC(=O)NC1CCCC1)N(C)Cc1cccc(F)c1", "note": "(stereo not drawn)", "activity change, negative = inhibition": "inactive: -3.15%"},
      {"smiles": "CC(=O)Nc1ccc(CN2CCC3(COc4ccccc4C(=O)N3)C2)cc1", "note": "(stereo not drawn)", "Potency": "inconclusive: 20 µM [inhibitor, partial curve]"},
      {"smiles": "O=C(NCc1cc2n(n1)CCCN(C1CCCCC1)C2)c1cccc(F)c1", "Potency": "inconclusive: 20 µM [inhibitor, single point]"},
      {"smiles": "Cc1ccccc1Nc1nc(C(=O)NCc2ccccc2)cs1", "activity change, negative = inhibition": "inactive: -20.4%"},
      {"smiles": "O=C(c1n[nH]c2ccccc12)N1CCC(c2nc(C3CCOCC3)no2)C1", "note": "(stereo not drawn)", "Potency": "inconclusive: 31.6 µM [inhibitor, partial curve, poor fit]"},
      {"smiles": "COc1ccc(C(=O)Nc2nc(-c3ccccn3)cs2)cc1S(=O)(=O)N1CCOCC1", "Potency": "inconclusive: 10 µM [inhibitor, partial curve, poor fit]"},
      {"smiles": "O=C(NCc1nnc2cc(-c3nc(C4CC4)no3)ccn12)c1ccc(F)cc1Cl", "Potency": "active: 28.2 µM"},
      {"smiles": "Cc1cccc(Cn2c(SCc3ccccc3)nc3c2c(=O)[nH]c(=O)n3C)c1", "Potency": "inconclusive: 14.1 µM [inhibitor, partial curve, poor fit]"},
      {"smiles": "CCCc1cc(=O)oc2cc(OC(C)C(=O)NC3CC(C)(C)NC(C)(C)C3)ccc12", "note": "(stereo not drawn)", "Potency": "inconclusive: 25.1 µM [inhibitor, partial curve, poor fit]"},
      {"smiles": "Cc1cccc(NC(=O)Cn2c(SCC(=O)NCc3ccccc3)nc3ccccc32)c1C", "activity change, negative = inhibition": "inconclusive: -34.1% [inhibitor]"},
      {"smiles": "CCCNC(=O)c1c(O)c2cccc3c2n(c1=O)CCC3", "Potency": "inconclusive: 20 µM [inhibitor, partial curve, poor fit]"},
      {"smiles": "O=C(Cn1ccn2nc(-c3ccc(F)cc3)c(CO)c2c1=O)Nc1ccc2c(c1)OCCO2", "Potency": "inconclusive: 22.4 µM [inhibitor, single point]"},
      {"smiles": "COc1ccc(CC(=O)NC(C)C(=O)N2CCN(c3ccccn3)CC2)c(Cl)c1", "note": "(stereo not drawn)", "Potency": "inconclusive: 31.6 µM [inhibitor, partial curve, poor fit]"},
      {"smiles": "O=C(O)c1cc(C(=O)O)c2sc(=O)[nH]c2c1", "activity change, negative = inhibition": "inactive: 6.92%"},
      {"smiles": "CCN(CC)C(=O)c1c(NC(=O)c2ccccc2F)sc2c1CCC(C)C2", "note": "(stereo not drawn)", "activity change, negative = inhibition": "inactive: -5.99%"},
      {"smiles": "Cc1ccc2oc(-c3ccc(NC(=O)c4oc5ccc(Cl)cc5c4C)cc3)nc2c1", "Potency": "inconclusive: 39.8 µM [inhibitor, single point]"},
      {"smiles": "CN(C)CCCN(C)c1nccc(C2(c3ccccc3Cl)CCNCC2)n1", "Potency": "inconclusive: 28.2 µM [inhibitor, partial curve, poor fit]"},
      {"smiles": "COc1ccc(-c2cc(N3CCCC(NC(=O)c4sccc4C)C3)n[nH]2)cc1", "note": "(stereo not drawn)", "Potency": "inconclusive: 35.5 µM [inhibitor, partial curve, poor fit]"},
      {"smiles": "Cc1nnc(N2C(=O)C(=O)/C(=C(/O)c3ccccc3)C2c2ccc(C(C)C)cc2)s1", "note": "(stereo not drawn)", "Potency": "inconclusive: 4.47 µM [inhibitor, full curve, poor fit]"},
      {"smiles": "COc1ccc(CNC(=O)CC[C@H]2CNC(=O)[C@@H]3[C@@H](CCN3Cc3ccc(C(=O)O)cc3)N2C)cc1", "Potency": "inconclusive: 20 µM [inhibitor, partial curve, poor fit]"},
      {"smiles": "COc1ccc(Oc2c(C)oc3cc(O)ccc3c2=O)cc1", "Potency": "inconclusive: 35.5 µM [inhibitor, partial curve, poor fit]"},
      {"smiles": "CCCCCNC(=O)CCc1c(C)nc2nc(N)nn2c1C", "Potency": "inconclusive: 35.5 µM [inhibitor, partial curve, poor fit]"},
      {"smiles": "Cc1ccc(-n2nc(C)c3c(C(=O)NCCc4ccc(S(N)(=O)=O)cc4)cc(C)nc32)cc1", "Potency": "inconclusive: 39.8 µM [inhibitor, single point]"},
      {"smiles": "O=C(CN1C(=O)c2cccnc2Sc2ccccc21)Nc1cc(F)ccc1F", "Potency": "inconclusive: 28.2 µM [inhibitor, single point]"},
      {"smiles": "CN(CCOc1ccc(C#N)cc1)C1CCCc2ccccc21", "note": "(stereo not drawn)", "activity change, negative = inhibition": "inactive: 14.1%"},
      {"smiles": "COc1cc(C(=O)/C(=C/c2cccnc2)c2nc3ccccc3o2)cc(OC)c1OC", "Potency": "inconclusive: 25.1 µM [inhibitor, partial curve, poor fit]"},
      {"smiles": "CCN1C(=O)c2ccccc2S(=O)(=O)c2ccc(C(=O)NCc3ccccc3OC)cc21", "Potency": "inconclusive: 28.2 µM [inhibitor, partial curve, poor fit]"},
      {"smiles": "O=C(CCC1CCCN(C(=O)c2ccsc2)C1)N1CCN(c2ccccn2)CC1", "note": "(stereo not drawn)", "Potency": "inconclusive: 28.2 µM [inhibitor, partial curve, poor fit]"},
      {"smiles": "O=C(Cc1c[nH]c2ncc(-c3cccnc3)cc12)NCc1ccccc1", "activity change, negative = inhibition": "inactive: 6.59% [at 86.2 µM]"},
      {"smiles": "CN(CC(=O)Nc1ccccc1Cl)C(=O)COC(=O)COc1ccc2oc3c(c2c1)CCCC3", "activity change, negative = inhibition": "inactive: -7.69%"},
      {"smiles": "O=C(C1CCCC1)N1CCCC(c2nn[nH]n2)C1", "note": "(stereo not drawn)", "Potency": "inconclusive: 15.8 µM [inhibitor, partial curve]"},
      {"smiles": "CC(=O)N1CCC(N[C@@H]2C[C@H](COc3cccc(C)n3)[C@@H](O)[C@H]2O)CC1", "Potency": "inconclusive: 20 µM [inhibitor, partial curve, poor fit]"},
      {"smiles": "Cc1cc(Nc2cccc(Cl)c2)nc2ccc(NC(=O)COc3ccc(Cl)cc3)cc12", "Potency": "inconclusive: 7.08 µM [inhibitor, partial curve, poor fit]"},
      {"smiles": "O=c1c(Cl)c(N2CCCC(C(F)(F)F)C2)cnn1-c1ccccc1", "note": "(stereo not drawn)", "activity change, negative = inhibition": "inactive: 10.9%"},
      {"smiles": "O=C(CSc1nnc(NC(=O)c2ccc(F)cc2)s1)NC1CC1", "Potency": "inconclusive: 39.8 µM [inhibitor, single point]"},
      {"smiles": "COc1ccc(NC(=O)C2(C)CCc3cnc(N4CCOCC4)nc32)cc1", "note": "(stereo not drawn)", "Potency": "active: 39.8 µM"},
      {"smiles": "O=C(c1ccncc1)N1CCC(CCOc2ccc(F)cc2)C1", "note": "(stereo not drawn)", "Potency": "inconclusive: 25.1 µM [inhibitor, partial curve, poor fit]"},
      {"smiles": "CN1CCC(Oc2ccc(NC(=O)c3ccncc3)cn2)C1", "note": "(stereo not drawn)", "Potency": "inconclusive: 12.6 µM [inhibitor, partial curve, poor fit]"},
      {"smiles": "O=C(c1ccco1)N1N=C(c2cccs2)CC1c1ccccc1O", "note": "(stereo not drawn)", "Potency": "inconclusive: 39.8 µM [inhibitor, single point]"},
      {"smiles": "CCCC(C)Nc1oc(-c2ccc(Cl)cc2)nc1C#N", "note": "(stereo not drawn)", "Potency": "inconclusive: 39.8 µM [inhibitor, partial curve, poor fit]"},
      {"smiles": "CNCC(=O)N1CCCC(N2CCN(c3ccc(OC)cc3)CC2)C1", "note": "(stereo not drawn)", "Potency": "inconclusive: 15.8 µM [inhibitor, partial curve]"},
      {"smiles": "Cc1ncc2n1C(=O)N(C1CCN(Cc3cccnc3)CC1)C2", "Potency": "inconclusive: 31.6 µM [inhibitor, partial curve, poor fit]"},
      {"smiles": "Cc1ccc(NC(=O)C2CCN(S(=O)(=O)c3ccc4c(c3)CCCC(=O)N4)CC2)cc1N(C)C", "Potency": "inconclusive: 1.41 µM [inhibitor, full curve, poor fit]"},
      {"smiles": "CC(NC(=O)c1ccc(Cn2ccn3nc4c(c3c2=O)CCCC4)cc1)c1ccccc1", "note": "(stereo not drawn)", "Potency": "inconclusive: 31.6 µM [inhibitor, single point]"},
      {"smiles": "COc1ccc(OC)c(NC(=O)C2CCN(S(=O)(=O)c3ccc4c(c3)CC(C)N4C(C)=O)CC2)c1", "note": "(stereo not drawn)", "Potency": "inconclusive: 7.94 µM [inhibitor, partial curve, poor fit]"},
      {"smiles": "Cc1cn2nc(C(=O)NCc3cccnc3)cc2c(=O)[nH]1", "Potency": "inconclusive: 17.8 µM [inhibitor, partial curve, poor fit]"},
      {"smiles": "COc1cc(=O)n2c(c1C(=O)N1CCN(c3ccc(C)cc3C)CC1)CCCC2", "Potency": "inconclusive: 6.31 µM [inhibitor, single point]"},
      {"smiles": "CN(Cc1ccccc1)C(=O)COC(=O)c1ccccc1-c1nc2ccccc2s1", "activity change, negative = inhibition": "inactive: -5.49%"},
      {"smiles": "COc1ccc(CCNC(=O)Cn2ccn3nc4c(c3c2=O)CCCC4)cc1OC", "Potency": "inconclusive: 39.8 µM [inhibitor, single point]"}
    ]}
  ]
}
